Laboratory results from the supplement of paper PMC12217912.
This is one part of the list. Sequences were assembled here from the parent chain. Inactive controls read about 0.05.

B1: TEV protease; numbered along this chain (parent)
chain: MGESLFKGPRDYNPISSSICHLTNESDGHTTSLYGIGFGPFIITNKHLFRRNNGTLVVQSLHGVFKVKDTTTLQQHLVDGRDMIIIRMPKDFPPFPQKLKFREPQREERICLVTTNFQTKSMSSMVSDTSCTFPSGDGIFWKHWIQTKDGQCGSPLVSTRDGFIVGIHSASNFTNTNNYFTSVPKNFMELLTNQEAQQWVSGWRLNADSVLWGGHKVFMVKPEEPFQPVKEATQL

Variants of: B1
Test: raw area under fraction-flipped curve 0-4 h after induction (AUC4h, not background-subtracted), DNA-recorder readout of cleavage of the substrate (dimensionless); higher = more cleavage of the substrate by the protease variant
Details: temperature: 34 °C; time window: 0-4 h after rhamnose induction
Description: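 In vivo DNA recorder in E. coli TOP10(DE3) ΔrhaA at 34 °C. Each TEVp single-site mutant (parent TEVp 0) is paired with a single-site variant of the 7-mer TEVs (canonical ENLYFQ|S). The substrate sits between flexible linkers in a Bxb1-sfGFP-TEVs-SsrA fusion, so cleavage stabilises Bxb1 and speeds flipping of a recombination array, read by NGS. The value is the raw area under the fraction-flipped curve over 0-4 h after rhamnose induction (AUC4h), with ≥20 reads per time point. It is not background-subtracted; inactive controls average about 0.047.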
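Note: Bxb1 expression induced with 0.2% (w/v) L-rhamnose at OD600 near 0.5, cultures sampled hourly, flipped fraction per protease–substrate barcode pair counted by paired-end Illumina sequencing.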

Row | Variant | area with substrate ENLYFQD | area with substrate ENLYFQG | area with substrate ENLYFQH | area with substrate ENLYFQK | area with substrate ENLYFQM | area with substrate ENLYFQN | area with substrate ENLYFQQ | area with substrate ENLYFQR | area with substrate ENLYFQS | area with substrate ENLYFQW | area with substrate ENLYFQY | area with substrate ENLYFQC | area with substrate ENLYFQF | area with substrate ENLYFQI | area with substrate ENLYFQL | area with substrate ENLYFQT | area with substrate ENLYFQV | area with substrate ENLYFQE | area with substrate ENLYFQP
1 | E195C | 0.0849 | 0.0746 | 0.0733 | 0.0558 | 0.0659 | 0.0785 | 0.0585 | 0.0505 | 0.0973 | 0.0702 | 0.0704 |  |  |  |  |  |  |  | 
2 | T147Y |  | 0.154 | 0.0577 | 0.0698 |  | 0.0676 |  | 0.0564 | 0.0599 |  |  | 0.0623 | 0.0574 | 0.0634 | 0.0631 | 0.0603 | 0.063 |  | 
3 | Q74H | 0.106 |  |  | 0.0544 |  |  |  |  | 0.0921 | 0.0665 |  |  |  |  |  | 0.0744 | 0.0624 |  | 
4 | E189I | 0.0671 | 0.0891 | 0.076 | 0.0563 | 0.0854 | 0.0566 |  | 0.0677 | 0.0961 |  |  | 0.106 | 0.084 | 0.0514 | 0.0547 | 0.0604 | 0.0612 |  | 
5 | F226Y |  | 0.0813 | 0.0885 | 0.0663 |  | 0.0776 | 0.106 | 0.0679 | 0.113 | 0.0658 | 0.0623 | 0.129 |  | 0.0558 | 0.0578 | 0.0641 |  | 0.0853 | 0.0575
6 | I139Q | 0.0818 | 0.111 | 0.0782 |  | 0.0852 | 0.0803 |  |  | 0.0991 | 0.0663 | 0.0864 | 0.113 |  | 0.051 |  | 0.0641 |  |  | 
7 | M188L | 0.0514 | 0.0737 |  |  | 0.101 |  |  | 0.0586 | 0.105 | 0.0704 |  | 0.109 | 0.0654 | 0.0398 | 0.0595 | 0.064 |  | 0.0654 | 0.0464
8 | M188T | 0.0792 |  | 0.0804 | 0.072 |  | 0.0808 | 0.0515 |  | 0.102 | 0.072 |  | 0.111 |  | 0.064 | 0.0805 | 0.0444 | 0.0738 | 0.0606 | 
9 | N52I | 0.0701 |  |  | 0.0521 |  |  |  | 0.0567 | 0.0648 | 0.0528 | 0.0593 |  |  |  |  |  |  |  | 
10 | N52M | 0.0872 | 0.0718 |  | 0.0637 |  | 0.0719 |  |  | 0.0654 | 0.0623 |  |  |  |  | 0.0624 |  |  |  | 0.0634
11 | N52Y |  | 0.063 | 0.0656 | 0.056 | 0.0672 |  | 0.0544 | 0.061 | 0.0704 | 0.05 |  |  |  | 0.0693 | 0.0594 | 0.0597 | 0.0607 | 0.0527 | 0.056
12 | E223F |  |  |  | 0.0675 | 0.063 | 0.0691 |  | 0.0569 | 0.0838 |  |  | 0.0988 |  | 0.0611 | 0.0607 | 0.044 | 0.0657 |  | 
13 | E231M | 0.0631 |  | 0.0894 | 0.0603 | 0.0936 | 0.078 | 0.0782 | 0.0528 | 0.0941 | 0.0712 | 0.0724 | 0.0941 |  |  | 0.0615 | 0.0478 |  |  | 
14 | F65R | 0.11 |  |  | 0.0623 |  | 0.0534 |  | 0.0905 | 0.097 | 0.0748 | 0.0989 |  | 0.0867 | 0.062 | 0.053 | 0.0393 |  | 0.0537 | 0.0472
15 | M219D |  | 0.0949 | 0.0565 |  | 0.0615 | 0.0561 |  | 0.0579 | 0.0945 | 0.0565 |  | 0.0977 | 0.0256 | 0.0598 | 0.0622 | 0.0595 | 0.0611 |  | 
